The campaign covered roughly 390,000 compounds. About 930 (0.24%) were called active. The shares of active, inactive and inconclusive entries below differ from those in the screen. Calls follow the shape of the dose curve; as a rule, active = well fitted activation curve with a large enough effect; inconclusive = small, poorly fitted or top-dose-only effect; inactive = no such curve, though single readings can be large or run the other way. A potency beside an inconclusive call is a rough fit, not a confirmed value.
Assay: qHTS for Suppressors of FUS Proteinopathy: Primary screen using FUS-linked yeast assay; also: nearly all actives have a fitted effect of over 55% in size
Details: S. cerevisiae FUS-expressing, OD600, 24 h; Potency: growth rescue; series mostly up to 76.6 µM
How it was run: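 Quantitative HTS measuring growth restoration of FUS-toxic yeast. Galactose-induced cells (OD 0.005) were exposed 24hr at 30C to compounds at several concentrations, then absorbance at 600 nm was recorded.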
Potency is read from the fitted curve at half-maximal effect; tags tell the direction and shape of the fitted curve.

Structure (SMILES)	Potency
COCc1cc(C)nc2c1C(=O)NC(c1ccc(F)cc1)N2Cc1ccccc1 (stereo not drawn)	inactive
COc1ccc(C(=O)Nc2ccc(N(C)Cc3ccccc3)c(C(=O)O)c2)cc1	inactive
O=C(CN1CCCN(Cc2ccccc2F)S1(=O)=O)Nc1ccc(F)c(Cl)c1	inactive
Cc1cc(Nc2cccc(Cl)c2)nc2ccc(NC(=O)c3cncc(Br)c3)cc12	active: 31.6 µM
O=C(Nc1ccc(Cl)cc1)N1CCN(Cc2nc3ccccc3c(=O)[nH]2)CC1	inactive
COc1ccc(S[C@]2(C(=O)N3CCN(C(C)=O)CC3)CC(=O)N(C(=O)CCc3ccccc3)[C@@H]2c2ccc(OC)cc2)cc1	inconclusive: 22.4 µM [activator, partial curve, poor fit]
O=C(COC(=O)C1CC1)Nc1ccc(Cl)cn1	inactive
COc1ccc(C(C#N)CC(=O)c2ccc(OC)c(OCc3ccccc3)c2)cc1OC (stereo not drawn)	inconclusive: 22.4 µM [activator, partial curve]
CCCCc1c(O)nc(SCC(=O)NC(C)(C)C)n(-c2ccccc2C)c1=O	inconclusive: 50.1 µM [activator, partial curve, poor fit]
O=C(CCCSc1nnc(Nc2ccccc2F)s1)N1CCOCC1	inactive
COc1ccc(NC(=O)CN(C)C(=O)c2cc(-c3ccc(OC)cc3)nc3ccccc23)cc1	inconclusive: 39.8 µM [activator, single point]
COc1cc2c(cc1NC(=O)CSc1nnc(-c3ccccc3F)n1-c1ccc(C)cc1)oc1ccccc12	inconclusive: 14.1 µM [activator, partial curve, poor fit]
Cc1ccc(S(=O)(=O)CC(=O)N2CCN(c3ccc([N+](=O)[O-])cc3)CC2)cc1	inconclusive: 15.8 µM [activator, partial curve]
COc1cc2oc3cc(C#Cc4ccc(N)cc4)ccc3c(=O)c2cc1OC	inconclusive: 20 µM [activator, partial curve, poor fit]
CCc1ccc(C(=O)c2cn(CC(=O)Nc3cccc(OC)c3)c3cc4c(cc3c2=O)OCO4)cc1	inconclusive: 35.5 µM [activator, single point]
COc1cc(/C=C2/SC(=Nc3ccc(O)cc3)NC2=O)cc(OC)c1O	inconclusive: 25.1 µM [activator, partial curve]
CCCCCCCCN1C(=O)[C@H](CC(=O)NCC2CCCCC2)C[C@@]2(C(=O)OC)CCCCC=C12	inconclusive: 25.1 µM [activator, partial curve, poor fit]
CC(C)CCNC(=O)CN(Cc1ccc2c(c1)OCO2)C(=O)Cn1nnc(-c2cccs2)n1	inconclusive: 31.6 µM [activator, partial curve, poor fit]
